The other results are listed elsewhere or left out. Values were computed here from the reads of four pooled replicates and scatter widely.
Molecular target: T1, Pho4 (S. cerevisiae) (UniProt P07270)
T1 sequence: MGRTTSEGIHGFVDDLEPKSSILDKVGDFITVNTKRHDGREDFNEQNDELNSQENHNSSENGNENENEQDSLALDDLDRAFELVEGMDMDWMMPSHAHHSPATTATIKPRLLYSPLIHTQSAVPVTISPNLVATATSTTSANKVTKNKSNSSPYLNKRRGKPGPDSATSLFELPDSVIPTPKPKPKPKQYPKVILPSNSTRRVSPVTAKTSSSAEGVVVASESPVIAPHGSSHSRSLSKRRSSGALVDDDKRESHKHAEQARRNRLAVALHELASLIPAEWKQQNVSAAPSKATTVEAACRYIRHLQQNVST
Experiment: relative binding free energy (BET-seq); higher = weaker binding
Settings: reference: library average

Sequence	relative binding free energy [kcal/mol]
ATATGCACGTGTTTGA	-0.06
GGGTTCACGTGTGATG	0.39
ACGAACACGTGGGGTT	-0.13
AGCTGCACGTGCTGTG	0.02
TTGCGCACGTGGTTGA	-0.3
GAAACCACGTGGGGGG	-0.15
AGTGTCACGTGTAGCT	-0.11
ACTGGCACGTGAGGGG	0.09
TGAAGCACGTGAGGTT	0.16
TGAGTCACGTGGGGAC	-0.03
TTTGTCACGTGCTTTA	0.11
CTTGGCACGTGATAGG	-0.06
ATTGTCACGTGCTTGT	-0.14
TGAAACACGTGTTTGA	-0.04
AGGGCCACGTGGGGTA	-0.3
TGTTTCACGTGTTATA	0.11
CTATGCACGTGATGGG	0.09
TGCTGCACGTGCAGGT	-0.15
ATAGCCACGTGTAGTG	-0.1
AGGAGCACGTGTTGCT	-0.05
CGAGACACGTGTGGGG	0.14
CTTGGCACGTGAAGTT	0
ACGGGCACGTGGGCCG	-0.29
AAAGTCACGTGGCTTA	0.19
GTGTCCACGTGTTGTA	0.11

Sequence	relative binding free energy [kcal/mol]
AAGTACACGTGTGCTG	0.06
GCTATCACGTGTTTTT	0.2
TTCAACACGTGGGTGG	0
GGTATCACGTGGGCTG	0.12
GGGTTCACGTGCGCTT	0.17
ATTGTCACGTGCGCGT	-0.07
TTGCTCACGTGGAGGG	0.19
AAGAACACGTGTTTTT	0.06
AGTGACACGTGGTCGG	-0.09
TCTTGCACGTGTATAT	0.03
ACGTGCACGTGTTGGA	-0.08
TAGTACACGTGTTGGG	0.12
TGGAGCACGTGGGGAA	-0.09
AGGTTCACGTGGTAGA	0.16
TAATGCACGTGTAAAT	0.05
TGGCTCACGTGGGTCG	0.18
GGCTTCACGTGCAGGG	0.23
ATGACCACGTGGGTGT	-0.17
TAAGTCACGTGTTCGT	0.01
ATGAGCACGTGTAGTC	0.04
ACGTTCACGTGAAGGC	0.6
GTAGTCACGTGCGTGA	0.14
ATAGCCACGTGTGGGG	-0.1
GGTAACACGTGAGTGC	0.25
GTTTCCACGTGTAATG	0.24

Sequence	relative binding free energy [kcal/mol]
TGGGTCACGTGGTCAT	0.15
CATGTCACGTGGTGTT	0.01
AGTGGCACGTGCGGGG	-0.11
ATGGTCACGTGTCGTA	0.16
TCAAACACGTGGTTGG	0.1
CGTAGCACGTGGGACG	-0.13
TAGGACACGTGGGTGT	-0.12
GTTAACACGTGAGGGC	0.27
TTCTGCACGTGGGAAT	-0.15
AATGGCACGTGAAGCG	0
TATGCCACGTGGTATG	-0.22
AAAGACACGTGGGGGC	-0.06
TATTCCACGTGTGTTG	0.11
CGGGACACGTGGGTAG	-0.13
TTTTCCACGTGGTGTT	-0.07
TATGCCACGTGAGGAG	0.17
TCTTGCACGTGATCGG	0.27
TAAATCACGTGGAGGA	0.12
ATTTTCACGTGTTGTT	0.26
GTATACACGTGGGTCG	-0.12
ACTAACACGTGTTGTT	0.06
TTTGACACGTGTCTTA	0.03
CATATCACGTGAGTGT	0.14
TATGACACGTGATGTA	0.07
TAGGCCACGTGTGATG	0

Sequence	relative binding free energy [kcal/mol]
TTTAGCACGTGTGTCT	-0.01
AATTGCACGTGCATTG	-0.01
CGGGGCACGTGACTGG	-0.05
TGCTGCACGTGTTGTC	0.12
GTGATCACGTGCATTT	0.19
TTGGGCACGTGAAGAT	0.09
TAATTCACGTGGCATT	0.21
GATATCACGTGGAGGT	0.26
GGGTGCACGTGATATT	0.15
TAAATCACGTGGTATG	-0.11
GTATTCACGTGAGGTA	0.28
TGTTGCACGTGTTATG	0.03
TGTTACACGTGGGAGA	0.03
CTTAACACGTGGGGTA	-0.16
AATTCCACGTGTGGTT	0.12
TTATGCACGTGCTCTG	-0.12
TGTTGCACGTGTGCTA	0
AGGTGCACGTGGTCTT	-0.11
GGGCACACGTGGTGCA	0.12
ATATTCACGTGGTGCA	0.05
GTTTTCACGTGCTTAG	0.22
AGTGGCACGTGAGATG	0.08
GTAAGCACGTGTGGAA	0.11
GTTTTCACGTGATCAT	0.33
AATTGCACGTGGCGAT	0.11

Sequence	relative binding free energy [kcal/mol]
TGTGTCACGTGGGCGG	-0.02
AATCGCACGTGGGTAG	-0.14
TATGGCACGTGTGATT	0.11
CTGGGCACGTGGAGTC	-0.06
AAGGTCACGTGTACTT	0.07
TTTCGCACGTGCAGGT	0.01
TGCATCACGTGGTTTC	0.21
TGGACCACGTGTGGTT	0.05
CTGTGCACGTGTATAG	-0.09
GTCAACACGTGGAGTT	0.18
TGTAACACGTGGTCTT	-0.22
TGTTGCACGTGTCGAG	0.08
TATGTCACGTGCCGGG	-0.1
CTCGGCACGTGGGGGC	-0.28
GGGTCCACGTGTTATT	0
GTGGGCACGTGTTTGG	0.01
AGAAGCACGTGGTTTA	-0.08
CGGAGCACGTGTGTGC	-0.1
TTTTACACGTGAAGGA	0.43
CTTGTCACGTGTGGTG	0.11
TGTGACACGTGAAATT	0.15
ATTCGCACGTGTTAGG	-0.04
ATGTCCACGTGGCGGG	-0.18
TTTATCACGTGTTGAC	0.29
TTTAGCACGTGTATCT	0.09

Sequence	relative binding free energy [kcal/mol]
ATCGGCACGTGCGTTG	-0.19
CGAGGCACGTGTGGTC	0.07
GGAAACACGTGTCGGG	0
GTGTGCACGTGTAGGG	0.03
ACGGTCACGTGTGCGT	0.12
GAAAGCACGTGAGAGG	0.26
TGTCTCACGTGGGGAT	0.11
GATTTCACGTGGGCAA	0.23
ATTGTCACGTGGCTAG	0.13
CGTAGCACGTGTTAGT	-0.08
GGGAACACGTGAGGTA	0.26
GCGTACACGTGTTTGT	0.01
ATGTACACGTGGGTCT	-0.14
GGATCCACGTGAGGGT	0.27
ACAGGCACGTGGGTTG	-0.34
TGGTGCACGTGTTTAT	0.05
ATTCACACGTGGGTTG	-0.01
TACGACACGTGAGTGT	0.27
TTAGTCACGTGTGCTA	-0.06
TGTGACACGTGTTTAT	-0.07
ATGTTCACGTGTGCCG	0.17
